The campaign covered roughly 110,000 compounds. About 230 (0.21%) showed an effect of 50% or more. The list shows a part of the results.
Target: DPAP1 (Plasmodium falciparum, UniProt Q8IIJ9)
Assay: primary screen, percent inhibition; read by cleavage of a fluorogenic dipeptide substrate; higher = more effect of the substance
Parameters: species or system P. falciparum D10 trophozoite lysates; single well
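Note: 30 min substrate incubation versus DMSO and 10 µM JCP410 controls.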

DPAP1, sequence (Q8IIJ9 whole entry, looked up): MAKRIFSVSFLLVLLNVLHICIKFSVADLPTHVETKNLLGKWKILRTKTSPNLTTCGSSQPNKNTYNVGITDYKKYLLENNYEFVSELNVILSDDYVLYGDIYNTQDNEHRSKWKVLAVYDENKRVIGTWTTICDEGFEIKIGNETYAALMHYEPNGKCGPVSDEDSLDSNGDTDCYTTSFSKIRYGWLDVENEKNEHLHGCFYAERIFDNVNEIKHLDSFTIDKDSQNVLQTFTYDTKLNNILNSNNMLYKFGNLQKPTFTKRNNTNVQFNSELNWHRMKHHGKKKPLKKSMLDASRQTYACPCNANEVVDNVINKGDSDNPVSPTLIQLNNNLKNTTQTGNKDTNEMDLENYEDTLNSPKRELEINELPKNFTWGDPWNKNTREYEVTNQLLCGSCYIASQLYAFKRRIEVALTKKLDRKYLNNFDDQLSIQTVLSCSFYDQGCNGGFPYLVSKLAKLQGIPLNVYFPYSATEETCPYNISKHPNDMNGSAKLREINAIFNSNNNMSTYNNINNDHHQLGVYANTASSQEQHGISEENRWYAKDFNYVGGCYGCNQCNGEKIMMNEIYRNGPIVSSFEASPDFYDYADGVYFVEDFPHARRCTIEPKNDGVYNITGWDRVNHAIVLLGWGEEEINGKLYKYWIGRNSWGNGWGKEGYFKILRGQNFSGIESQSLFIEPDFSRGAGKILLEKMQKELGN

Structure (SMILES)	% Inhibition @ 10 uM [%]
Cc1sc(NC(=O)C(C)C)c(C(=O)Nc2ccccc2)c1C	0.35
CN(Cc1ccccc1)C(=O)CCCOc1ccc(Cl)cc1Cl	0.215
COc1cccc2c1Oc1ncccc1N(c1ccc(C(=O)NCCCOC(C)C)s1)C2	1.44
COc1cc2c(cc1OC)C(Nc1ccc(Cl)cc1)=NC(C)(C)C2	2.67
Cc1c2cnnc(O)c2c(C)n1Cc1ccccc1F	-0.0309
CC(=O)Nc1ccc(Nc2ncnc3c2cnn3Cc2ccc(Cl)cc2)cc1	-1.89
COc1ccc(C(=O)ON2C(=O)c3cccc4cccc(c34)C2=O)cc1	0.778
O=C(O)C(Sc1nccc(-c2ccccc2)n1)c1ccccc1 (stereo not shown)	7.67
CCC(C)NC(=O)C(Cc1ccccc1)n1cccc1 (stereo not shown)	-0.692
COCCCn1c(=N)c(C(N)=S)cc2c(=O)n3cccc(C)c3nc21	-1.47
CC1CC(C)CN(C(=O)c2cc3c(s2)-c2ccc(Cl)cc2S(=O)(=O)C3)C1 (stereo not shown)	-2.45
COc1ccc(/C(O)=C/C=N/c2ccc(NC(C)=O)cc2)cc1OC	1.35
CCOc1ccccc1NC(=O)CN(c1ccc(Br)cc1)S(C)(=O)=O	5.12
COC(=O)c1cc(S(=O)(=O)N2CCCCC2C)c[nH]1 (stereo not shown)	-4.68
COc1cc(CNC2CCCC2)ccc1OCC(=O)NC(C)(C)C	7.02
O=C(NCCc1ccccc1)c1cc2ccccc2oc1=O	5.7
O=C1NCCCC[C@@H]1NC1CCC(c2ccccc2)CC1 (stereo partly shown)	1.88
CC1=C(C(=O)Nc2cccnc2)C(c2cccc(Br)c2)n2nc(-c3ccccc3)nc2N1 (stereo not shown)	-0.545
CCC(CC)C(=O)Nc1cccc(NC(=O)C(CC)CC)c1	3.74
COc1ccccc1NC1SC(=O)N(Cc2cccc(C(=O)O)c2)C1=O (stereo not shown)	-19.7
Cc1nnc(NC(=O)CSc2nc(C)c(Cc3ccc(O)cc3)[nH]2)s1	0.883
OC(C#CCCN1CCCCC1)(c1ccccc1)C1CCCCC1 (stereo not shown)	0.774
CCO/C(O)=C1\C(C)=NC2=C(C(=O)CCC2)C1c1cc(CSc2nnnn2C)cs1 (stereo not shown)	3.66
CN1CCCN(Cc2cccc(O)c2)CC1	5.55
COc1ccc(Cn2c(=O)c(C#N)cc3c(=O)n4cc(C)ccc4nc32)cc1	-2.28

Structure (SMILES)	% Inhibition @ 10 uM [%]
O=C(NCCC1=CCCCC1)Nc1ccc(Cl)cc1	2.44
COc1ccccc1CC(=N)NOC(=O)/C=C/c1ccccc1	-1.33
COCCNC(=O)Cn1ncc2ccccc21	4.84
CCN(CC)S(=O)(=O)c1ccc(Cl)c(C(=O)Nc2cccc(C(C)=O)c2)c1	-3.24
Cc1cc(OCC(=O)ONC(=O)c2ccc(Cl)cc2)ccc1Br	-0.386
O=C(Nc1ccc2c3c(cccc13)CC2)c1ccccc1F	1.29
c1ccc(-c2ccc(CN3CCOCC3)cc2)cc1	-0.0494
CCc1nn(CC(=O)NCCOC)c(=O)c2cc3ccccc3n12	3
CC(C)C[C@H](NC(=O)N1CCN(C(=O)C2CCCO2)CC1)C(=O)NCC#N (stereo partly shown)	2.87
Cc1cc(-c2ccco2)c(C#N)c(SCC(=O)c2ccc(O)c(O)c2)n1	12.5
CC1(C)CC(=O)c2cnc(NC(=O)CSc3nc4ccccc4o3)nc2C1	-13.3
CCOC(=O)CNS(=O)(=O)c1ccccc1	-3.62
CC(C)(C)c1ccc(S(=O)(=O)Nc2cc(SCC(=O)O)c(O)c3ccccc23)cc1	4.11
O=c1c(CN2CCN(c3ccc(Cl)cc3)CC2)coc2c(Cl)cc(Cl)cc12	2.1
COc1ccccc1N1CCN(S(=O)(=O)c2c(C)cc(C)cc2C)CC1	0.273
COc1cccc(/C=C2/SC(=O)N(CC(=O)Nc3ccc(C)cc3)C2=O)c1O	30.1
COc1ccccc1/C=C/c1nn2c(C3COc4ccccc4O3)nnc2s1 (stereo not shown)	50.2
CCC(C)NC(=O)CN1CCN(Cc2ccc(Cl)cc2)C1=O (stereo not shown)	-3.28
COc1cccc2c1OC1(C)CC2NC(=S)N1 (stereo not shown)	-7.6
CCCCN(C)CCNC(=O)Cn1ncc2c(=O)oc3ccc(C)cc3c21	3.2
COCc1nc2ccccc2n1Cc1ccc(C(C)C)cc1	4.3
CC1=C(c2ccc(C)cc2)S(=O)(=O)N=C1N1CCN(Cc2ccccc2)CC1	3.87
O=S(=O)(c1ccccc1)N1N=C(c2ccc(Cl)cc2)CC1c1ccco1 (stereo not shown)	0.59
CCOC(=O)c1c(C)n(C)c2ccc(OCC(O)CNCCc3ccccc3)cc12 (stereo not shown)	0.415
CCCNC(=O)c1cc(-c2ccc(O)cc2)on1	1.37

Structure (SMILES)	% Inhibition @ 10 uM [%]
CN(C)c1ccc(-c2ccncc2)cc1	2.76
Cc1ccc2nc(NC(=O)C3CCCN3S(=O)(=O)c3cccc4nsnc34)sc2c1 (stereo not shown)	-2.25
Cc1ccc(S(=O)(=O)Nc2nc3ccccc3nc2N2CCCCC2)cc1	-0.969
O=C1CC(NCCCN2CCOCC2)C(=O)N1c1ccccc1 (stereo not shown)	4.98
COCc1cc(C)nc2sc(C(=O)c3ccc(F)cc3F)c(N)c12	-0.947
Cc1nc2c(c(C)c1CCC(=O)N1CCN(C=O)CC1)c(=O)n(C)c(=O)n2C	5.13
CCc1ccc(C2N3CC4(C)CN2CC(C)(C3)C4)cc1 (stereo not shown)	3.25
CC(=O)c1ccc2c(c1)c1ccccc1n2CC(C)C	-2.98
CC(=O)Nc1c(Cl)cnn(-c2ccccc2)c1=O	2.22
CCOc1ccc(-n2c(C)c(C(C)=O)c(C(C)=O)c2C)cc1	-0.297
CC(C)(C)c1ccc(-c2nnc(SCC(=O)N3CCCCC3)o2)cc1	-4.66
CCOC(=O)C1CCCN(Cc2ccc(F)c(F)c2)C1 (stereo not shown)	-2.25
CC(C)NC(=O)C(=O)Nc1cccc(Cl)c1	-0.631
CCOC(=O)c1c(C)n(CCOc2ccccc2Cl)c2ccc(O)cc12	5.55
Cc1cc(/C=C2\NC(=O)NC2=O)c(C)n1-c1ccc(Br)cc1F	-3.87
COC(=O)C1=C(C)NC(=O)CC1c1cccc2ccccc12 (stereo not shown)	0.736
c1ccc2sc(N3CN(CCCN4CCOCC4)CN(c4nc5ccccc5s4)C3)nc2c1	-1.52
O=C1c2cccnc2C(=O)N1Cc1ccc(S(=O)(=O)NC2CCCC2)s1	-4.03
COc1ccc(CN2CCN(C(=O)c3cccc(Cl)c3)CC2)cc1OC	5.6
COC(=O)c1ccc(C2Oc3c(OC)cccc3C3CC(c4ccc(F)cc4)=NN32)cc1 (stereo not shown)	19.2
FC(F)(F)c1ccccc1CNC1CCN(Cc2ccccc2)CC1	-1.75
CC(=O)N1C(C(=O)O)CSC12CCN(C)CC2 (stereo not shown)	-1.7
COc1cccc(S(=O)(=O)Nc2ccc(C(=O)Nc3cccc(C(F)(F)F)c3)cc2)c1	-5.6
COc1ccc([N+](=O)[O-])cc1NC1CCCC(C)C1 (stereo not shown)	-1.54
COc1ccc2c(CNCc3cc(Br)ccc3OC)c(C(=O)O)n(C)c2c1	-5.99

Structure (SMILES)	% Inhibition @ 10 uM [%]
O=C(Nc1nonc1N1C(=O)c2ccccc2C1=O)c1ccco1	-5.72
CCCN(CC1CC1)C1CCN(CC)CC1	-3.6
O=c1cc(C(F)(F)C(F)(F)C(F)(F)C(F)F)oc2ccccc12	0.131
COC(=O)C1=C(C)NC(=O)/C1=C\c1cccc2ccccc12	1.81
CNS(=O)(=O)c1cn(CC(=O)Nc2nc3ccc(OC)cc3s2)cc1S(=O)(=O)NC	-1.59
Cc1ccc(Cn2c(C)c(CNCC3CCCO3)c(C(=O)O)c2C)cc1 (stereo not shown)	-5.49
O=C(O)C12CC3CC(C1)CC(n1ncc(N4CCC(c5ccccc5)C4)c(Cl)c1=O)(C3)C2 (stereo not shown)	5.43
COc1cc(/C=C2\SC(NC(C)=O)=NC2=O)cc2sc(=O)oc12	26.6
CCOC(=O)C1=C(C)NC(=O)NC1c1cccc(C(F)(F)F)c1 (stereo not shown)	0.132
COc1ccc(-n2c(CNCc3ccc4c(c3)OCO4)nc3ccccc3c2=O)cc1	-7.17
CCOC(=O)c1c(C)[nH]c(C)c1S(=O)(=O)N1CCC(c2ccccc2)C1 (stereo not shown)	2.41
Cc1ccccc1Cn1c(C(=O)O)c(CNCCc2ccc(S(N)(=O)=O)cc2)c2ccccc21	-1.34
CCOc1ccc(-c2cc(C)n3nc(C(=O)NCc4ccco4)cc3n2)cc1	0.221
Cc1noc2ncnc(N3CC=C(c4ccccc4)CC3)c12	-5.58
COc1ccc(-n2c3c(c(=O)[nH]c2=O)C(NC(=O)c2cccs2)(C(F)(F)F)C(=O)N3)cc1 (stereo not shown)	-4.97
CS(=O)(=O)CCC(C(=O)NCCc1ccc(Cl)cc1)N1Cc2ccccc2C1=O (stereo not shown)	-0.769
CCOc1ccc(-c2csc3nc4ccccc4n23)cc1	-1.36
c1ccc(N2CCN(C3CCCCCC3)CC2)cc1	-3.6
Cc1ccc(S(=O)(=O)NCc2ccc(C(=O)NCCc3ccc(S(N)(=O)=O)cc3)cc2)cc1	0.718
CC1CCN(S(=O)(=O)c2ccc(Cc3ccc(S(=O)(=O)N4CCC(C)CC4)cc3)cc2)CC1	1.17
COc1ccc(C(=O)Nc2cccc(O)c2)cc1Cl	3.81
COC(=O)C1=C(C)N(C)C(=O)NC1c1cccc(OC)c1 (stereo not shown)	1.61
COc1ccc(CCN2C(=O)CC(C(C)c3ccccc3)C2=O)cc1OC (stereo not shown)	3.09
CC12CN3CC(C)(CN(C1)C3c1ccc(O)cc1O)C2=O (stereo not shown)	-0.807
N#CCNC(=O)[C@H](CSCc1ccccc1)NC(=O)c1ccc(O)cc1	-4.82
